Assay results as given in PubChem BioAssay AID1460 (National Center for Advancing Translational Sciences (NCATS), 2008).
Values joined by “and” are separate entries in the source; they are usually repeats but may differ in a detail not shown here. Identical values can stand only once. Out of some 270,000 compounds screened, about 5,800 (2.1%) were called active. Inconclusive means that the source gave no clear call. Such entries were picked first, then a sample of the others. Calls come from the whole dose curve; as a rule, active = well fitted inhibition curve with a large enough effect; inconclusive = small, poorly fitted or top-dose-only effect; inactive = flat fitted curve, though single readings scatter. Potencies beside an inconclusive call are fits to weak or partial responses and may not hold up.
Note: nearly all actives have a fitted effect of over 55% in size.
Potency is the fitted concentration of half-maximal effect; tags give direction and shape of the fitted curve.

Each molecule was assayed against Microtubule-associated protein tau (Homo sapiens) (UniProt P10636) (assay: qHTS for Inhibitors of Tau Fibril Formation, Thioflavin T Binding). Conditions: recombinant tau K18 P301L (four-repeat tau fragment), heparin-induced fibrillization, ThT fluorescence; series mostly up to 57.4 µM.
Sequence of UniProt P10636 (P10636 whole entry, looked up, the tested form may be a part): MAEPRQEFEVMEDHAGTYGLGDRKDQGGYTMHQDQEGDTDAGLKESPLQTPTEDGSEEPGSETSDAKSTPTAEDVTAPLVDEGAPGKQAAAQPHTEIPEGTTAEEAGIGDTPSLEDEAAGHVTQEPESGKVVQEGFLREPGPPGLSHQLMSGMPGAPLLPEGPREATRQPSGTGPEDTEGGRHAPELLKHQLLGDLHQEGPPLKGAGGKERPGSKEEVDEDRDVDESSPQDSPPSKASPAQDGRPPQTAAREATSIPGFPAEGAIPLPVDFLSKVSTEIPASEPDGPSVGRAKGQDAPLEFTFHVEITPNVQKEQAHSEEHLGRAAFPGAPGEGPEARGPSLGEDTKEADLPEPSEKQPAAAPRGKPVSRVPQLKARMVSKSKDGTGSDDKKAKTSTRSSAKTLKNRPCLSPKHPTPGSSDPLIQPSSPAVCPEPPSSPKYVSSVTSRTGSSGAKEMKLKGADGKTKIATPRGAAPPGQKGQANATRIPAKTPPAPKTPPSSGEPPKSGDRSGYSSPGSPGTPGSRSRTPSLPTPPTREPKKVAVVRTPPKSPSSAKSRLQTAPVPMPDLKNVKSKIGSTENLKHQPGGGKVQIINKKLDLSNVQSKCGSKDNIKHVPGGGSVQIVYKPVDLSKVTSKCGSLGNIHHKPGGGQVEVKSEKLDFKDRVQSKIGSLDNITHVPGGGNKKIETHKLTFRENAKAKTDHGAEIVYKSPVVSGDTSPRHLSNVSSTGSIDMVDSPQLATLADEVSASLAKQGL
Method in brief: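 Recombinant human tau K18 fragment […] carrying P301L, 15 uM unlabeled plus 0.24 uM Alexa 594-labeled, was fibrillized with 20 uM heparin in 100 mM sodium acetate pH 7 for 6 hr at 37 C; 30 uM ThT fluorescence read after 1 hr.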
With CCOC(=O)C1=C(C)OC(N)=C(C(=O)OC)C12C(=O)Nc1ccc(Br)cc12 (centres undefined) the Potency was inconclusive: 31.6 µM [inhibitor, partial curve].
CCc1ccccc1N1C(=O)CC(=O)NC1=O was tested, and the Potency was inconclusive: 8.91 µM [inhibitor, full curve].
In the case of CN1CCN(C(=O)COc2ccc(S(=O)(=O)N(C)Cc3ccccc3)cc2)CC1, the Potency is reported as “inactive”.
In the case of Nc1ccc(N)cc1, the Potency is reported as active: 14.1 µM.
O=C(Nc1ccc2c(c1)OCO2)c1cn(Cc2ccc(F)cc2)nn1 was tested, and the Potency was inconclusive: 10 µM [inhibitor, partial curve].
With N/C(=N\[N+](=O)[O-])NCCCC(NC(=O)CNC(=O)c1ccccc1)C(=O)O (centres undefined) the Potency was “inactive”.
COCCCNC(=O)c1c(N)n(Cc2ccco2)c2nc3ccccc3nc12 was tested, and the Potency was inconclusive: 22.4 µM [inhibitor, partial curve].
COCCNC(=O)c1c(N)n(Cc2ccco2)c2nc3ccccc3nc12 was tested, and the Potency was inconclusive: 20 µM [inhibitor, partial curve].
c1ccc(CNc2c3c(nc4ccccc24)CCC3)cc1 was tested, and the Potency was “inactive”.
In the case of CCNc1nc2[nH]c(=O)c3c(c2s1)OC(N)=C(C#N)C3c1cccs1 (centres undefined), the Potency is reported as inconclusive: 11.2 µM [inhibitor, partial curve].
O=C1NC(=S)N(c2ccccc2)C(=O)C1C(c1ccncc1)C1C(=O)NC(=S)N(c2ccccc2)C1=O (centres undefined) was tested, and the Potency was inconclusive: 6.31 µM [inhibitor, partial curve].
With CN1C(=O)C(=Cc2ccccc2OCc2ccc(C(=O)O)cc2)C(=O)N(C)C1=O the Potency was inconclusive: 7.94 µM [inhibitor, full curve].
In the case of CC(=O)[C@@]1(O)CC[C@H]2C3CCC4=CC(=O)CC[C@]4(C)C3CC[C@@]21C (some centres undefined), the Potency is reported as inconclusive: 12.6 µM [inhibitor, partial curve].
For CC(C)(O)[C@H]1O[C@@H]2CC[C@]3(C)[C@@]4(C)c5[nH]c6ccccc6c5C[C@@H]4CC[C@]3(O)C2=CC1=O, the Potency was inconclusive: 12.6 µM [inhibitor, partial curve].
In the case of COc1ccc(N2C(=O)NC(=O)/C(=C/c3cccc(OC(=O)c4cccs4)c3)C2=O)cc1Cl, the Potency is reported as inconclusive: 25.1 µM [inhibitor, partial curve].
With CCCCC/C=C\C/C=C\C/C=C\C/C=C\CCCC(=O)Nc1ccc(O)cc1 the Potency was inconclusive: 28.2 µM [inhibitor, partial curve] and inconclusive: 20 µM [inhibitor, partial curve, poor fit].
In the case of O=C(/C=C/c1ccc2c(c1)OCO2)c1c(O)n(CCC2=CCCCC2)c(=O)[nH]c1=O, the Potency is reported as inconclusive: 11.2 µM [inhibitor, partial curve].
With COc1ccc(/C=C2\C(=O)NC(=S)N(C)C2=O)cc1C the Potency was inconclusive: 15.8 µM [inhibitor, partial curve].
In the case of CCc1ccc(OCC(=O)N2CCN(Cc3ccc4c(c3)OCO4)CC2)cc1, the Potency is reported as inconclusive: 22.4 µM [inhibitor, partial curve].
CN(C)c1ccc(/C=C/C=C/c2sc3ccccc3[n+]2C)cc1 was tested, and the Potency was active: 6.31 µM.
For O=c1[nH]c(=S)n(C2CC2)c(O)c1/C=N/Nc1cccc2ccccc12, the Potency was active: 11.2 µM.
With CCOP(=O)(OCC)C(NC(=O)c1ccccc1C)C(Cl)(Cl)Cl (centres undefined) the Potency was “inactive”.
For O=C1C(c2ccccc2)=C(N2CC2)c2ccccc21, the Potency was inconclusive: 28.2 µM [inhibitor, partial curve].
COc1ccccc1N1C(=O)NC(=O)/C(=C/c2ccc3c4c(cccc24)CC3)C1=O was tested, and the Potency was “inactive”.
Nc1c(C(=O)Nc2ccc(F)c(Cl)c2)sc2nc3c(cc12)N1CCC3CC1 was tested, and the Potency was inconclusive: 17.8 µM [inhibitor, partial curve].
Cc1cccn2c(=O)c3c(nc12)N1CCc2ccccc2C1C1(C3)C(=O)NC(=O)N(C)C1=O (centres undefined) was tested, and the Potency was inconclusive: 8.91 µM [inhibitor, partial curve].
In the case of Cc1cc(N2CCCCC2)nc2ccc(NC(=O)CCC(=O)N3CCN(c4cccc(Cl)c4)CC3)cc12, the Potency is reported as inconclusive: 10 µM [inhibitor, partial curve].
With CCOc1ccc(-n2c(O)c(C=Nc3ccc(N(CC)CC)cc3)c(=O)[nH]c2=O)cc1 the Potency was inconclusive: 15.8 µM [inhibitor, partial curve].
For COc1ccc(Nc2nc(N)nc(CSc3nc4ccccc4s3)n2)cc1, the Potency was inconclusive: 1.41 µM [inhibitor, partial curve].
For O=C1NC(=S)N(c2ccc(Br)cc2)C(=O)/C1=C/N1CCN(C(=O)c2ccco2)CC1, the Potency was inconclusive: 25.1 µM [inhibitor, single point].
In the case of CCc1ccc(-n2c(O)c(C=NCCN(CC)CC)c(=O)[nH]c2=O)cc1, the Potency is reported as inconclusive: 12.6 µM [inhibitor, partial curve].
For CC(=O)NC(Cc1ccc(N(CCCl)CCCl)cc1)C(=O)NCC(=O)NCC(=O)O (centres undefined), the Potency was inconclusive: 28.2 µM [inhibitor, single point].
Cc1ccc(S(=O)(=O)N[C@@H](CCCCN)C(=O)CCl)cc1 was tested, and the Potency was “inactive”.
In the case of CC1/C=C/C=C/CC/C=C/C=C/C=C/C=C/C(OC2OC(C)C(O)C(N)C2O)CC2O[C@](O)(CC(O)C(O)CCC(O)CC(O)CC(O)CC(=O)OC(C)C(C)C1O)CC(O)C2C(=O)O (some centres undefined), the Potency is reported as inconclusive: 35.5 µM [inhibitor, single point].
In the case of O=C1NC(=O)N(Cc2ccccc2)C(=O)/C1=C/C=C/c1ccco1, the Potency is reported as active: 10 µM.
With CC(C)Oc1ccc(C(=O)Nc2ccc3c(c2)CCCN3C(=O)c2cccs2)cc1 the Potency was inconclusive: 31.6 µM [inhibitor, partial curve].
In the case of C=CCN1C(=O)NC(=O)/C(=C/c2ccc(N(C)C)c(Br)c2)C1=O, the Potency is reported as inconclusive: 10 µM [inhibitor, partial curve].
For Cc1ccccc1-c1nc(CS(=O)CC(=O)N2CCN(c3cc(Cl)ccc3C)CC2)c(C)o1 (centres undefined), the Potency was inconclusive: 35.5 µM [inhibitor, partial curve, poor fit].
In the case of CCCCCCCCCCCCCC(=O)O[C@@H]1[C@@H](C)[C@@]2(O)[C@@H](C=C(CO)C[C@@]3(O)C(=O)C(C)=C[C@@H]23)C2C(C)(C)[C@@]21OC(C)=O (some centres undefined), the Potency is reported as “inactive”.
In the case of Nc1ccccc1C(=O)OCC(=O)c1ccc2c(c1)OCCO2, the Potency is reported as inconclusive: 20 µM [inhibitor, single point].
With O=C1NC(=O)C(=Cc2ccc3c(c2)OCO3)C(=O)N1 the Potency was inconclusive: 3.16 µM [inhibitor, full curve].
CC(=NCCN1CCCCC1)c1c(O)[nH]c(=O)[nH]c1=O was tested, and the Potency was inconclusive: 39.8 µM [inhibitor, partial curve].
COc1ccc2c(c1OC)C(=O)OC2c1c(O)n(Cc2ccc(F)cc2)c(=O)[nH]c1=O (centres undefined) was tested, and the Potency was inconclusive: 15.8 µM [inhibitor, partial curve].
CCOc1ccc2c(c1)c(C(C)=O)c(C)n2Cc1ccco1 was tested, and the Potency was inconclusive: 14.1 µM [inhibitor, partial curve].
NS(=O)(=O)c1cc(C2(O)NC(=O)c3ccccc32)ccc1Cl (centres undefined) was tested, and the Potency was inconclusive: 8.91 µM [inhibitor, single point].
CN1CC[C@@]2(C)c3cc(O)ccc3N(C)[C@@H]12 was tested, and the Potency was active: 14.1 µM.
With CCCCCCCSc1cc(OC)c(CCN(C)C)cc1OC the Potency was inconclusive: 39.8 µM [inhibitor, single point].
CC(=O)OC1CCC23C(=O)OC45CCC(C6=CC(=O)OC6)C4(C)CCC2C5CCC3(O)C1 (centres undefined) was tested, and the Potency was “inactive”.
For CC1=CC(=O)C2=C(C)C[C@H](O)[C@H]3[C@H](C)C(=O)O[C@@H]3C12 (some centres undefined), the Potency was “inactive”.
With Oc1cccc2nc3ccccc3nc12 the Potency was active: 15.8 µM.
COc1cc(/C=C2/C(=O)N(c3ccccc3)N=C2C)ccc1OS(=O)(=O)c1ccccc1 was tested, and the Potency was active: 14.1 µM.
With Cc1cc(N2CCCCC2)ccc1C=C1C(=O)N(C)C(=S)N(C)C1=O the Potency was inconclusive: 14.1 µM [inhibitor, partial curve].
With C=C(C)[C@H]1O[C@H]2CC[C@@]3(C)[C@@](O)(CC[C@H]4[C@@H]5OC(C)(C)[C@H]6C[C@@H]7C(=C)Cc8c(Cl)cc9[nH]c(c5c9c8[C@@]76O)[C@@]43C)[C@]23O[C@@H]3[C@H]1O the Potency was “inactive”.
CC1OC(O[C@H]2C[C@@H](O)[C@]3(CO)[C@@H]4C(CC[C@]3(O)C2)[C@@]2(O)CC[C@H](C3=CC(=O)OC3)[C@@]2(C)C[C@H]4O)C(O)C(O)C1O (some centres undefined) was tested, and the Potency was “inactive”.
In the case of O=C1NC(=O)N(Cc2cccs2)C(=O)/C1=C/c1ccc(N2CCOCC2)cc1, the Potency is reported as inconclusive: 8.91 µM [inhibitor, partial curve].
In the case of COC(=O)CN1CN(c2ccccc2)C2(CCN(Cc3ccc4ccccc4c3)CC2)C1=O, the Potency is reported as “inactive”.
Cc1cc(CN(C)C)c(OC(=O)N(C)C)cc1C was tested, and the Potency was “inactive”.
With O=C1NC(=S)NC(=O)C12C(c1ccccc1)NC(=S)NC2c1ccccc1 (centres undefined) the Potency was inconclusive: 15.8 µM [inhibitor, single point].
For O=c1[nH]c(=O)n(C2CCCCC2)c(O)c1/C=C/C=Nc1ccccc1, the Potency was “inactive”.
In the case of CN1C(=O)C(=Cc2c(OCc3cnc(Cl)s3)ccc3ccccc23)C(=O)N(C)C1=O, the Potency is reported as inconclusive: 6.31 µM [inhibitor, single point].
In the case of CCCCC/C=C\C/C=C\C/C=C\C/C=C\CCCC(=O)NCCO, the Potency is reported as “inactive”.
With COc1ccc(C[C@H]2NC[C@H](O)[C@@H]2OC(C)=O)cc1 the Potency was “inactive”.
O=C(Oc1ccc(Br)cc1)C1CC(=O)N(c2ccc(F)cc2)C1 (centres undefined) was tested, and the Potency was inconclusive: 35.5 µM [inhibitor, single point].
In the case of c1cc(CCN2CCCC2)ccn1, the Potency is reported as “inactive”.
